Data reported in PubChem BioAssay AID588342 (National Center for Advancing Translational Sciences (NCATS), 2011).
Screen size: about 360,000 compounds; about 25,000 (6.9%) were called active. The inconclusive results got no clear call from the source; some entries with a clear call stand among them for comparison. The call rests on the fitted dose curve; in most records, active means well fitted inhibition curve with a large enough effect; inconclusive means small, poorly fitted or top-dose-only effect; inactive means flat fitted curve, though single readings scatter. Potencies beside an inconclusive call are fits to weak or partial responses and may not hold up.

Target: Luciferin 4-monooxygenase (Photinus pyralis) (UniProt P08659)
Assay: qHTS profiling assay for firefly luciferase inhibitor/activator using purifed enzyme and Km concentrations of substrates (counterscreen for miR-21 project); further: nearly all actives have a fitted effect of over 55% in size;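 on activity change, negative = inhibition: plate controls were vehicle for no effect and reference inhibitor for full effect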
Conditions: purified FLuc, luminescence inhibition; series mostly up to 57.5 µM; activity change, negative = inhibition: at the top concentration
In short: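 Biochemical qHTS of compounds, final roughly 60 µM downward over six points, against 10 nM purified firefly luciferase using Km concentrations of substrates (10 uM D-luciferin, 10 uM ATP) in Tris acetate pH 7.5 buffer; luminescence output.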
Potency means the concentration at half of the fitted maximal effect; tags describe the fitted curve by direction and shape.

UniProt P08659, sequence (P08659 whole entry, looked up): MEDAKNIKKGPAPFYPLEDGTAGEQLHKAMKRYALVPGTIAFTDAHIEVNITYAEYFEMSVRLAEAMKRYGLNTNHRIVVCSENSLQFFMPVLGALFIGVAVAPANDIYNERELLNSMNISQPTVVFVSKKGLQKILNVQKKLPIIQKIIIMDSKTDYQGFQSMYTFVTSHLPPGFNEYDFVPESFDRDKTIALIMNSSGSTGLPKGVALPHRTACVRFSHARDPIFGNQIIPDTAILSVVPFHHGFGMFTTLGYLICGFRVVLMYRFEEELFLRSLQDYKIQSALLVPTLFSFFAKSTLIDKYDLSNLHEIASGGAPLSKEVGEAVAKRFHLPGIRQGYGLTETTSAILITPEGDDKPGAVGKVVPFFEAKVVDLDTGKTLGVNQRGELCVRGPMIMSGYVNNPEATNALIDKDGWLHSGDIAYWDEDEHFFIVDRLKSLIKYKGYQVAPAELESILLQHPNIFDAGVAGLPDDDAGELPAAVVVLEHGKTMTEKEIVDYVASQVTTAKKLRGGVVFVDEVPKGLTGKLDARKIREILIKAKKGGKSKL

Q: How did the “activity change, negative = inhibition” value turn out when `COc1ccc(Cl)cc1NC(=O)C1CCCN(c2ncnc3onc(C)c23)C1` (configuration not stated) was run?
A: inactive: -2.73%

Q: Which Potency does the source give for `C/C(=N/Oc1nc(C)cc(C)n1)c1ccc(F)cc1` here?
A: inconclusive: 19 µM [inhibitor, partial curve]

Q: Which Potency does the source give for `O=C(N/N=C/c1ccncc1)c1cc2ccccc2cc1O` here?
A: active: 7.57 µM

Q: Which Potency does the source give for `O=C(O)C1CC=CCC1C(=O)NNc1c(Cl)cc(Cl)cc1Cl` (configuration not stated) here?
A: inconclusive: 26.9 µM [inhibitor, partial curve, poor fit]

Q: With `O=C(OCc1nnc(-c2ccccc2)o1)c1ccc2ccccc2n1` as the molecule, how does the Potency read?
A: inconclusive: 21.3 µM [inhibitor, partial curve, poor fit]

Q: Which “activity change, negative = inhibition” value does the source give for `Cc1ccccc1C(=O)NC1(C(F)(F)F)N=C(c2ccccc2)N(C2CCCCC2)C1=O` (configuration not stated) here?
A: inactive: 5.09%

Q: For `CC(=O)c1sc(NC(=O)CN2C(=O)C3CCCCC3C2=O)nc1-c1ccccc1` (configuration not stated), which “activity change, negative = inhibition” value is on record?
A: inactive: -0.834%

Q: How did the Potency turn out when `COc1cc(C)nc2nc(SCc3ccccc3)nn12` was run?
A: inconclusive: 37.9 µM [inhibitor, partial curve, poor fit]

Q: `O=C(CCCOC(=O)c1ccc(O)cc1O)c1ccc(Br)cc1` was tested. Which “activity change, negative = inhibition” value did it give?
A: inactive: -2.12%

Q: With `CCN(CC(=O)Nc1cc(S(=O)(=O)N2CCOCC2)ccc1Cl)Cc1ccccc1` as the molecule, how does the “activity change, negative = inhibition” value read?
A: inactive: 2.51%

Q: `CCN(c1ccccc1)c1ccc2cc(S(=O)(=O)N3CCCC3)ccc2n1` was tested. Which “activity change, negative = inhibition” value did it give?
A: inactive: -0.965%

Q: Which Potency does the source give for `CC(C)CCn1c(Sc2nc3ccccc3o2)nc2c1c(=O)[nH]c(=O)n2C` here?
A: inconclusive: 26.9 µM [inhibitor, single point]

Q: Which “activity change, negative = inhibition” value does the source give for `CCN(C(=O)COC(=O)c1cccc(-n2cnnn2)c1)C1CCCCC1` here?
A: inactive: -5.01%

Q: For `Cc1c(C(=O)N(Cc2ccc(N(C)C)cc2)CC2CCCO2)oc2ccc(Cl)cc12` (configuration not stated), which “activity change, negative = inhibition” value is on record?
A: inactive: -0.971%

Q: `COc1ccc(CC(=O)Nc2cccc(C(=O)O)c2C)cc1` was tested. Which Potency did it give?
A: inconclusive: 19 µM [inhibitor, partial curve]

Q: `Cc1nc2cc(-c3ccccc3)nn2c(C)c1CCC(=O)NCc1ccco1` was tested. Which Potency did it give?
A: inconclusive: 37.9 µM [inhibitor, single point]

Q: For `Cc1ccccc1-c1noc(-c2cccnc2NCc2ccco2)n1`, which “activity change, negative = inhibition” value is on record?
A: inactive: 5.24%

Q: How did the Potency turn out when `O=C(Nc1ccc(O)cc1C(=O)O)c1cccc(Br)c1` was run?
A: active: 21.3 µM

Q: For `CCOC(=O)C1(C)C=C(Nc2ccccc2)C(=O)N1c1ccccc1` (configuration not stated), which “activity change, negative = inhibition” value is on record?
A: inactive: -3.34%

Q: With `CC(C)c1ccc(C(=O)NCCCN2CCN(CCCNC(=O)c3ccc(C(C)C)cc3)CC2)cc1` as the molecule, how does the Potency read?
A: inconclusive: 37.9 µM [inhibitor, partial curve, poor fit]

Q: For `CC(=O)Nc1ccccc1C(=O)C(=O)Nc1ccc(C)c(C)c1`, which Potency is on record?
A: inconclusive: 37.9 µM [inhibitor, single point]

Q: `COc1cc(NC(=O)CCc2nnc3ccc(N4CCC5(CC4)OCCO5)nn23)cc(OC)c1` was tested. Which “activity change, negative = inhibition” value did it give?
A: inactive: -0.211%

Q: With `NC(=O)c1sc2nc3c(cc2c1N)CCC3` as the molecule, how does the Potency read?
A: inconclusive: 19 µM [inhibitor, partial curve]

Q: Which Potency does the source give for `Oc1[nH]c2ccccc2c1N=Nc1nc(Nc2ccccc2)nc(N2CCOCC2)n1` here?
A: inconclusive: 30.1 µM [inhibitor, partial curve, poor fit]

Q: `Cc1ccc(CO/N=C/c2c(O)cc(C)oc2=O)cc1` was tested. Which Potency did it give?
A: inconclusive: 26.9 µM [inhibitor, single point]

Q: How did the Potency turn out when `CCOCC(=O)Nc1ccc(Br)c(C)c1` was run?
A: inconclusive: 23.9 µM [inhibitor, single point]

Q: Which Potency does the source give for `c1coc(CNc2nc3sc4c(c3c3ncnn23)CCCC4)c1` here?
A: inconclusive: 37.9 µM [inhibitor, partial curve, poor fit]

Q: With `CC(C)(C)c1ccc(C(=O)NCC(=O)OCC(=O)Nc2nc(-c3ccc(F)cc3)cs2)cc1` as the molecule, how does the Potency read?
A: active: 13.5 µM

Q: How did the Potency turn out when `O=C(NCCCc1ccccc1)c1ccccc1O` was run?
A: inconclusive: 26.9 µM [inhibitor, single point]

Q: `CN(C)S(=O)(=O)c1ccc2c(c1)N(CC(=O)Nc1ccc(OC(F)(F)F)cc1)C(=O)CS2` was tested. Which “activity change, negative = inhibition” value did it give?
A: inactive: -14.9%

Q: Which “activity change, negative = inhibition” value does the source give for `CCOC(=O)c1c(S(=O)(=O)N2CCC(C(=O)NCc3ccc(F)cc3)CC2)c(C)n(C)c1C` here?
A: inactive: 6.96%

Q: Which Potency does the source give for `Cc1ccc(NC(=O)Nc2nnc(-c3ccccc3)o2)cc1` here?
A: inconclusive: 19 µM [inhibitor, partial curve]

Q: Which Potency does the source give for `Cc1[nH]c2ccccc2c1/C=N/NC(=O)Cc1cccs1` here?
A: inconclusive: 21.3 µM [inhibitor, partial curve, poor fit]

Q: How did the Potency turn out when `COc1ccc(S(=O)(=O)n2ccc(-c3ccc4c(c3)CCC(C)(C)O4)n2)cc1` was run?
A: inconclusive: 21.3 µM [inhibitor, partial curve, poor fit]

Q: Which Potency does the source give for `O=C(CC1NCCNC1=O)Nc1ccc(Oc2ccccc2)cc1` (configuration not stated) here?
A: inconclusive: 30.1 µM [inhibitor, partial curve, poor fit]

Q: With `CCOC(=O)c1c(C)oc(/N=C/c2ccccc2O)c1C#N` as the molecule, how does the Potency read?
A: inconclusive: 3.01 µM [inhibitor, full curve]

Q: How did the Potency turn out when `Cc1cccc(NC(=O)c2cc(=O)c3ccccc3o2)c1` was run?
A: inconclusive: 19 µM [inhibitor, partial curve, poor fit]

Q: For `CNC(=O)c1c(NC(=O)c2nc3ccccc3s2)sc2c1CCC2`, which Potency is on record?
A: active: 5.36 µM

Q: With `COc1ccccc1CNC(=O)CCn1nc(C)c2c(C)n(-c3ccccc3)nc2c1=O` as the molecule, how does the “activity change, negative = inhibition” value read?
A: inactive: -0.606%

Q: `COC(=O)c1cn(NC(=O)/C=C/c2cc(OC)ccc2OC)c(=O)c2ccccc12` was tested. Which “activity change, negative = inhibition” value did it give?
A: inactive: 0.429%

Q: How did the Potency turn out when `COc1cc(/C=N/Nc2nc(Nc3ccccc3)nc(-n3nc(C)cc3C)n2)cc(OC)c1OC` was run?
A: active: 2.69 µM

Q: Which “activity change, negative = inhibition” value does the source give for `O=[N+]([O-])c1ccc(-[n+]2nc(-c3ccccc3)nn2-c2ccccc2)cc1` here?
A: inactive: -0.0228%

Q: `Cc1ccc(CN2C(=O)N/C(=C/c3cc(C)n(-c4ccccn4)c3C)C2=O)cc1` was tested. Which Potency did it give?
A: inconclusive: 1.51 µM [inhibitor, full curve]

Q: With `Cn1c(=O)n(C)c2cc(C(=O)Nc3ccc4c(c3)OCO4)ccc21` as the molecule, how does the Potency read?
A: inconclusive: 19 µM [inhibitor, partial curve]

Q: Which Potency does the source give for `Cc1cc(C(=O)N/N=C/c2c(C)n(C)c3ccccc23)n[nH]1` here?
A: inconclusive: 37.9 µM [inhibitor, single point]

Q: Which “activity change, negative = inhibition” value does the source give for `C=CCn1c(SCC(=O)NC(=O)NCCC)nnc1C1CCCCC1` here?
A: inactive: -1.06%

Q: How did the “activity change, negative = inhibition” value turn out when `CS(=O)(=O)c1ccc(C(=O)Nc2cc(S(C)(=O)=O)ccc2Cl)cc1` was run?
A: inactive: -0.147%

Q: For `Cc1ccc(Nc2nc(=O)c3cccnc3s2)cc1`, which Potency is on record?
A: active: 12 µM

Q: How did the “activity change, negative = inhibition” value turn out when `Cc1ccc2c(c1)-c1onc(C(=O)N3CCN(c4ccc(Cl)cc4)CC3)c1CO2` was run?
A: inactive: -16.6%

Q: Which Potency does the source give for `O=C(NC1CCCCC1)c1ccc(Cn2c(SCc3ccc(F)cc3)nc3cccnc32)cc1` here?
A: inconclusive: 1.2 µM [inhibitor, partial curve, poor fit]

Q: Which Potency does the source give for `N#CC1=C(c2ccccc2)/C(=C/c2ccccc2)OC1=O` here?
A: inconclusive: 10.7 µM [inhibitor, partial curve]

Q: Which Potency does the source give for `Cc1cc(C)cc(NC(=O)Nc2cccnc2)c1` here?
A: inconclusive: 21.3 µM [inhibitor, single point]

Q: Which Potency does the source give for `O=C(CSc1nnc(CCCOc2ccc(Cl)cc2Cl)o1)Nc1ccc(C(=O)O)cc1` here?
A: active: 5.36 µM

Q: Which Potency does the source give for `Fc1cccc(NC(=S)Nc2ccc(Br)cc2)c1` here?
A: inconclusive: 23.9 µM [inhibitor, single point]

Q: `COc1ccc(C(=O)NNC(=O)CSc2nnc(-c3ccc(O)cc3)n2C)cc1` was tested. Which Potency did it give?
A: inconclusive: 26.9 µM [inhibitor, partial curve, poor fit]

Q: With `Cc1cc2ccccc2n1CCNC(=O)c1ccc(Br)o1` as the molecule, how does the Potency read?
A: inconclusive: 26.9 µM [inhibitor, partial curve]

Q: For `Cc1cccc(N2CCN(Cc3ccc(Br)o3)CC2)c1C`, which Potency is on record?
A: inconclusive: 37.9 µM [inhibitor, partial curve, poor fit]

Q: With `COC(=O)c1ccc(NC(=O)c2cccc(C)c2[N+](=O)[O-])cc1` as the molecule, how does the Potency read?
A: inconclusive: 37.9 µM [inhibitor, partial curve, poor fit]

Q: With `CCN(CC)S(=O)(=O)c1nnc(NC(=O)COc2ccccc2F)s1` as the molecule, how does the Potency read?
A: active: 10.7 µM

Q: How did the Potency turn out when `O=C(COc1ccccc1)NNC(=O)c1cc2ccccc2oc1=O` was run?
A: inconclusive: 37.9 µM [inhibitor, partial curve, poor fit]

Q: `COc1cc(CNc2ccc(N3CCCC3)cc2)ccc1OCc1ccccc1F` was tested. Which Potency did it give?
A: inconclusive: 12 µM [inhibitor, partial curve, poor fit]

Q: For `COc1ccc(C2NC(=O)C(C#N)=C(S)N2c2cccc(C)c2)cc1OC` (configuration not stated), which Potency is on record?
A: inconclusive: 37.9 µM [inhibitor, single point]

Q: Which “activity change, negative = inhibition” value does the source give for `CCc1c(CN2CCN(c3cccc(C)c3C)CC2)csc1C` here?
A: inactive: -0.87%

Q: For `O=[N+]([O-])c1cccc(-c2csc(N/N=C/c3cccc(O)c3)n2)c1`, which Potency is on record?
A: inconclusive: 26.9 µM [inhibitor, partial curve]

Q: How did the “activity change, negative = inhibition” value turn out when `CSC1=NC2(CCN(C(=O)NC3CCCCC3)CC2)N=C1c1ccc(C)cc1` was run?
A: inactive: -14.7%

Q: How did the Potency turn out when `CCOC(=O)CN1C(=O)CN(c2ccc(C)cc2)C1=O` was run?
A: inconclusive: 19 µM [inhibitor, partial curve]

Q: Which Potency does the source give for `CSc1ccccc1NC(=O)C1=CC(c2cccs2)=NS(=O)(=O)N1C` here?
A: inconclusive: 37.9 µM [inhibitor, single point]

Q: With `O=C(C1=C[C@H](c2ccc(Br)cc2)C[C@H](OCc2ccc(CO)cc2)O1)N1CCN(Cc2ccc3c(c2)OCO3)CC1` as the molecule, how does the “activity change, negative = inhibition” value read?
A: inactive: -0.0686%

Q: With `CCN(CC(=O)Nc1ccc2c(c1)OCCO2)C(=O)/C=C/c1ccc([N+](=O)[O-])cc1` as the molecule, how does the Potency read?
A: inconclusive: 19 µM [inhibitor, partial curve]

Q: Which Potency does the source give for `NC(=O)C1CCN(C(=O)c2cccc(NC(=O)c3nsc4ccccc34)c2)CC1` here?
A: active: 12 µM

Q: Which Potency does the source give for `O=C(C1COc2ccccc2O1)N1CCN(c2nc3ccc(F)cc3s2)CC1` (configuration not stated) here?
A: inconclusive: 23.9 µM [inhibitor, partial curve]

Q: Which Potency does the source give for `O=C(c1cccs1)N(C(=O)c1cccs1)c1ccccn1` here?
A: inconclusive: 37.9 µM [inhibitor, partial curve, poor fit]
